# Results as given in the supplement of paper PMC8728848.
# The list shows a part of the results.
# B1: F17aG (Escherichia coli), Q99003 (protein)
# chain: MTNFYKVFLAVFILVCCNISQAAVSFIGSTENDVGPSLGSYSRTHAMDNLPFVYDTRNKIGYQNANVWHISKGFCVGLDGKVDLPVVGSLDGQSIYGLTEEVGLLIWMGDTKYSRGTAMSGNSWENVFSGWCVGANTASTQGLSVRVTPVILKRNSSARYSVQKTSIGSIRMRPYNGSSAGSVQTTVNFSLNPFTLNDTVTSCRLLTPSAVNVSLAAISAGQLPSSGDEVVAGTTSLKLQCDAGVTVWATLTDATTPSNRSDILTLTGASTATGVGLRIYKNTDSTPLKFGPDSPVKGNENQWQLSTGTETSPSVRLYVKYVNTGEGINPGTVNGISTFTFSYQ
# Columns and labels:
# Experiment in all cases: glycan array binding signal (z-score within array); higher = stronger binding
# Conditions in all cases: glycan notation: IUPAC condensed, linker removed
# Gal(a1-4)Gal(b1-4)GlcNAc = biological target: Gal(a1-4)Gal(b1-4)GlcNAc
# Outline: (§1)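 The binding signal is a Z-score computed within each array. Data were drawn from 3228 arrays in the Consortium for Functional Glycomics database, restricted to those with a known protein sequence. Scores were averaged over arrays of the same protein sequence at different concentrations or buffers, and over linkers, and negative values can be taken as non-binding.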
# [1] = biological target: Gal(a1-4)Gal(b1-4)GlcNAc(b1-2)Man(a1-3)[Gal(a1-4)Gal(b1-4)GlcNAc(b1-2)Man(a1-6)]Man(b1-4)GlcNAc(b1-4)GlcNAc
# Outline: as §1
# [2] = biological target: Gal(a1-4)Gal(b1-4)GlcNAc(b1-3)Gal(b1-4)Glc
# Outline: as §1
# Gal(a1-4)GlcNAc = biological target: Gal(a1-4)GlcNAc
# Outline: as §1
# Gal(a1-6)Glc = biological target: Gal(a1-6)Glc
# Outline: as §1
# Gal(b1-2)Gal = biological target: Gal(b1-2)Gal
# Outline: as §1
# Gal(b1-3)Gal = biological target: Gal(b1-3)Gal
# Outline: as §1
# Gal(b1-3)Gal(b1-4)GlcNAc = biological target: Gal(b1-3)Gal(b1-4)GlcNAc
# Outline: as §1
# [3] = biological target: Gal(b1-3)Gal(b1-4)GlcNAc(b1-2)Man(a1-3)[Gal(b1-3)Gal(b1-4)GlcNAc(b1-2)Man(a1-6)]Man(b1-4)GlcNAc(b1-4)GlcNAc
# Outline: as §1
# Gal(b1-3)GalNAc = biological target: Gal(b1-3)GalNAc
# Outline: as §1
# [4] = biological target: Gal(b1-3)GalNAc(a1-3)[Fuc(a1-2)]Gal(b1-4)Glc
# Outline: as §1
# [5] = biological target: Gal(b1-3)GalNAc(a1-3)[Fuc(a1-2)]Gal(b1-4)GlcNAc
# Outline: as §1
# [6] = biological target: Gal(b1-3)GalNAc(b1-3)Gal(a1-4)Gal(b1-4)Glc
# Outline: as §1
# [7] = biological target: Gal(b1-3)GalNAc(b1-4)Gal(b1-4)Glc
# Outline: as §1
# [8] = biological target: Gal(b1-3)GalNAc(b1-4)[Neu5Ac(a2-3)]Gal(b1-4)Glc
# Outline: as §1
# Gal(b1-3)GlcNAc = biological target: Gal(b1-3)GlcNAc
# Outline: as §1
# [9] = biological target: Gal(b1-3)GlcNAc(a1-6)Gal(b1-4)GlcNAc
# Outline: as §1
# [10] = biological target: Gal(b1-3)GlcNAc(b1-2)Man(a1-3)[Gal(b1-3)GlcNAc(b1-2)Man(a1-6)]Man(b1-4)GlcNAc(b1-4)GlcNAc
# Outline: as §1
# [11] = biological target: Gal(b1-3)GlcNAc(b1-2)Man(a1-3)[Gal(b1-3)GlcNAc(b1-2)Man(a1-6)]Man(b1-4)GlcNAc(b1-4)[Fuc(a1-6)]GlcNAc
# Outline: as §1
# [12] = biological target: Gal(b1-3)GlcNAc(b1-2)[Gal(b1-3)GlcNAc(b1-6)]Man(a1-6)[Gal(b1-3)GlcNAc(b1-2)Man(a1-3)]Man(b1-4)GlcNAc(b1-4)GlcNAc
# Outline: as §1
# [13] = biological target: Gal(b1-3)GlcNAc(b1-3)Gal(b1-3)GlcNAc
# Outline: as §1
# [14] = biological target: Gal(b1-3)GlcNAc(b1-3)Gal(b1-4)Glc
# Outline: as §1
# [15] = biological target: Gal(b1-3)GlcNAc(b1-3)Gal(b1-4)GlcNAc
# Outline: as §1
# [16] = biological target: Gal(b1-3)GlcNAc(b1-3)Gal(b1-4)GlcNAc(b1-6)[Gal(b1-3)GlcNAc(b1-3)]Gal(b1-4)Glc
# Outline: as §1
# [17] = biological target: Gal(b1-3)GlcNAc(b1-3)Gal(b1-4)[Fuc(a1-3)]GlcNAc(b1-6)[Gal(b1-3)GlcNAc(b1-3)]Gal(b1-4)Glc
# Outline: as §1
# [18] = biological target: Gal(b1-3)GlcNAc(b1-3)GalNAc
# Outline: as §1
# [19] = biological target: Gal(b1-3)GlcNAc(b1-6)Gal(b1-4)GlcNAc
# Outline: as §1
# [20] = biological target: Gal(b1-3)[Fuc(a1-4)]GlcNAc
# Outline: as §1
# [21] = biological target: Gal(b1-3)[Fuc(a1-4)]GlcNAc(b1-2)Man(a1-3)[Gal(b1-3)[Fuc(a1-4)]GlcNAc(b1-2)Man(a1-6)]Man(b1-4)GlcNAc(b1-4)GlcNAc
# Outline: as §1
# [22] = biological target: Gal(b1-3)[Fuc(a1-4)]GlcNAc(b1-2)Man(a1-3)[Gal(b1-3)[Fuc(a1-4)]GlcNAc(b1-2)Man(a1-6)]Man(b1-4)GlcNAc(b1-4)[Fuc(a1-6)]GlcNAc
# Outline: as §1
# [23] = biological target: Gal(b1-3)[Fuc(a1-4)]GlcNAc(b1-3)Gal(b1-3)[Fuc(a1-4)]GlcNAc
# Outline: as §1
# [24] = biological target: Gal(b1-3)[Fuc(a1-4)]GlcNAc(b1-3)Gal(b1-4)GlcNAc
# Outline: as §1
# [25] = biological target: Gal(b1-3)[Fuc(a1-4)]GlcNAc(b1-3)Gal(b1-4)[Fuc(a1-3)]GlcNAc
# Outline: as §1
# [26] = biological target: Gal(b1-3)[GlcNAc(b1-6)]GalNAc
# Outline: as §1
# [27] = biological target: Gal(b1-3)[Neu5Ac(a2-6)]GalNAc
# Outline: as §1
# [28] = biological target: Gal(b1-3)[Neu5Ac(a2-6)]GlcNAc(b1-6)Gal(b1-4)Glc
# Outline: as §1
# [29] = biological target: Gal(b1-3)[Neu5Ac(b2-6)]GalNAc
# Outline: as §1
binder,measurement,setting,value
B1,glycan array binding signal (z-score),Gal(a1-4)Gal(b1-4)GlcNAc,-0.252
same,glycan array binding signal (z-score),[1],-0.16
same,glycan array binding signal (z-score),[2],-0.154
same,glycan array binding signal (z-score),Gal(a1-4)GlcNAc,-0.258
same,glycan array binding signal (z-score),Gal(a1-6)Glc,0.181
same,glycan array binding signal (z-score),Gal(b1-2)Gal,-0.25
same,glycan array binding signal (z-score),Gal(b1-3)Gal,-0.25
same,glycan array binding signal (z-score),Gal(b1-3)Gal(b1-4)GlcNAc,-0.151
same,glycan array binding signal (z-score),[3],-0.05
same,glycan array binding signal (z-score),Gal(b1-3)GalNAc,0.105
same,glycan array binding signal (z-score),[4],-0.154
same,glycan array binding signal (z-score),[5],-0.156
same,glycan array binding signal (z-score),[6],-0.255
same,glycan array binding signal (z-score),[7],-0.246
same,glycan array binding signal (z-score),[8],-0.258
same,glycan array binding signal (z-score),Gal(b1-3)GlcNAc,-0.239
same,glycan array binding signal (z-score),[9],-0.168
same,glycan array binding signal (z-score),[10],-0.144
same,glycan array binding signal (z-score),[11],-0.138
same,glycan array binding signal (z-score),[12],-0.147
same,glycan array binding signal (z-score),[13],-0.134
same,glycan array binding signal (z-score),[14],-0.252
same,glycan array binding signal (z-score),[15],-0.236
same,glycan array binding signal (z-score),[16],-0.122
same,glycan array binding signal (z-score),[17],-0.174
same,glycan array binding signal (z-score),[18],-0.152
same,glycan array binding signal (z-score),[19],-0.148
same,glycan array binding signal (z-score),[20],-0.242
same,glycan array binding signal (z-score),[21],-0.119
same,glycan array binding signal (z-score),[22],0.003
same,glycan array binding signal (z-score),[23],-0.169
same,glycan array binding signal (z-score),[24],-0.242
same,glycan array binding signal (z-score),[25],-0.246
same,glycan array binding signal (z-score),[26],0.284
same,glycan array binding signal (z-score),[27],-0.205
same,glycan array binding signal (z-score),[28],-0.251
same,glycan array binding signal (z-score),[29],-0.243
